# Source: publication PMC4176354
# These are yes or no findings as the source states them, for the method shown. Where a sequence is shown, tags or fusion partners need not be part of it.
# T1: Mec3 (two-hybrid fusion) (S. cerevisiae) (UniProt Q02574)
# T1 sequence: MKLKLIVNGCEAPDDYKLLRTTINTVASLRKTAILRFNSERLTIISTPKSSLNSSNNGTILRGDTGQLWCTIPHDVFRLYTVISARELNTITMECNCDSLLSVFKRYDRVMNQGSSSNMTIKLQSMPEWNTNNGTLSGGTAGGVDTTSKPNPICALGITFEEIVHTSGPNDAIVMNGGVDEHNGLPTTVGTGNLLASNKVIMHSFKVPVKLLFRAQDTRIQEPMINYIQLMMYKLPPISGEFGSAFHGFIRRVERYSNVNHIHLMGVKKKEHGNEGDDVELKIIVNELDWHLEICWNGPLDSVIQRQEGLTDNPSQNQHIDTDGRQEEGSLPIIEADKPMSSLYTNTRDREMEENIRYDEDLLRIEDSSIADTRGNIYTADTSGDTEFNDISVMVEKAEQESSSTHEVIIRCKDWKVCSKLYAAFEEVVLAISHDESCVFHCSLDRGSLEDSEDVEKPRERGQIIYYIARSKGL
# T2: Rad17 (two-hybrid fusion) (S. cerevisiae) (UniProt P48581)
# T2 sequence: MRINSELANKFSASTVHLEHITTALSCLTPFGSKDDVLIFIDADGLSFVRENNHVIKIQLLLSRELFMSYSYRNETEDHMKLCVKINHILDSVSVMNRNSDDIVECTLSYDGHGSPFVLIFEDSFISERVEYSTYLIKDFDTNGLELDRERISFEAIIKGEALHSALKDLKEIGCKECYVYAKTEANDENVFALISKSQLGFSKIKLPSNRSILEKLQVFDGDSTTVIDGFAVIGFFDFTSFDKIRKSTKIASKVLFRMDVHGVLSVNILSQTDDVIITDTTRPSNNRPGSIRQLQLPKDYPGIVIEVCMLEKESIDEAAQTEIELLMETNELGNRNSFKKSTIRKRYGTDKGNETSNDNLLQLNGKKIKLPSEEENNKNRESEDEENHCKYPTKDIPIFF
# Legend:
# [1] = target: T1, Mec3 (two-hybrid fusion) (S. cerevisiae); assay: two-hybrid; Gal4 DB bait (pMB27) and Gal4 AD prey (pMB29) in diploid cdc13-1 reporter strains; growth on SC-His-Leu-Trp and SC-Ade-Leu-Trp, spotted at 23-29°C (23°C and 27°C shown); interactions of Ddc1 seem less strong at 27°C than at 23°C
# [2] = target: T2, Rad17 (two-hybrid fusion) (S. cerevisiae); assay: as above
Binder,binding [1],binding [2]
"Sgs1 (two-hybrid fusion) (protein, UniProt P35187 1-1447) MVTKPSHNLRREHKWLKETATLQEDKDFVFQAIQKHIANKRPKTNSPPTTPSKDECGPGTTNFITSIPASGPTNTATKQHEVMQTLSNDTEWLSYTATSNQYADVPMVDIPASTSVVSNPRTPNGSKTHNFNTFRPHMASSLVENDSSRNLGSRNNNKSVIDNSSIGKQLENDIKLEVIRLQGSLIMALKEQSKLLLQKCSIIESTSLSEDAKRLQLSRDIRPQLSNMSIRIDSLEKEIIKAKKDGMSKDQSKGRSQVSSQDDNIISSILPSPLEYNTSSRNSNLTSTTATTVTKALAITGAKQNITNNTGKNSNNDSNNDDLIQVLDDEDDIDCDPPVILKEGAPHSPAFPHLHMTSEEQDELTRRRNMRSREPVNYRIPDRDDPFDYVMGKSLRDDYPDVEREEDELTMEAEDDAHSSYMTTRDEEKEENELLNQSDFDFVVNDDLDPTQDTDYHDNMDVSANIQESSQEGDTRSTITLSQNKNVQVILSSPTAQSVPSNGQNQIGVEHIDLLEDDLEKDAILDDSMSFSFGRQHMPMSHSDLELIDSEKENEDFEEDNNNNGIEYLSDSDLERFDEERENRTQVADIQELDNDLKIITERKLTGDNEHPPPSWSPKIKREKSSVSQKDEEDDFDDDFSLSDIVSKSNLSSKTNGPTYPWSDEVLYRLHEVFKLPGFRPNQLEAVNATLQGKDVFVLMPTGGGKSLCYQLPAVVKSGKTHGTTIVISPLISLMQDQVEHLLNKNIKASMFSSRGTAEQRRQTFNLFINGLLDLVYISPEMISASEQCKRAISRLYADGKLARIVVDEAHCVSNWGHDFRPDYKELKFFKREYPDIPMIALTATASEQVRMDIIHNLELKEPVFLKQSFNRTNLYYEVNKKTKNTIFEICDAVKSRFKNQTGIIYCHSKKSCEQTSAQMQRNGIKCAYYHAGMEPDERLSVQKAWQADEIQVICATVAFGMGIDKPDVRFVYHFTVPRTLEGYYQETGRAGRDGNYSYCITYFSFRDIRTMQTMIQKDKNLDRENKEKHLNKLQQVMAYCDNVTDCRRKLVLSYFNEDFDSKLCHKNCDNCRNSANVINEERDVTEPAKKIVKLVESIQNERVTIIYCQDVFKGSRSSKIVQANHDTLEEHGIGKSMQKSEIERIFFHLITIRVLQEYSIMNNSGFASSYVKVGPNAKKLLTGKMEIKMQFTISAPNSRPSTSSSFQANEDNIPVIAQKSTTIGGNVAANPPRFISAKEHLRSYTYGGSTMGSSHPITLKNTSDLRSTQELNNLRMTYERLRELSLNLGNRMVPPVGNFMPDSILKKMAAILPMNDSAFATLGTVEDKYRRRFKYFKATIADLSKKRSSEDHEKYDTILNDEFVNRAAASSNGIAQSTGTKSKFFGANLNEAKENEQIINQIRQSQLPKNTTSSKSGTRSISKSSKKSANGRRGFRNYRGHYRGRK",no binding,no binding
"Exo1 (two-hybrid fusion) (protein, UniProt P39875 1-702) MGIQGLLPQLKPIQNPVSLRRYEGEVLAIDGYAWLHRAACSCAYELAMGKPTDKYLQFFIKRFSLLKTFKVEPYLVFDGDAIPVKKSTESKRRDKRKENKAIAERLWACGEKKNAMDYFQKCVDITPEMAKCIICYCKLNGIRYIVAPFEADSQMVYLEQKNIVQGIISEDSDLLVFGCRRLITKLNDYGECLEICRDNFIKLPKKFPLGSLTNEEIITMVCLSGCDYTNGIPKVGLITAMKLVRRFNTIERIILSIQREGKLMIPDTYINEYEAAVLAFQFQRVFCPIRKKIVSLNEIPLYLKDTESKRKRLYACIGFVIHRETQKKQIVHFDDDIDHHLHLKIAQGDLNPYDFHQPLANREHKLQLASKSNIEFGKTNTTNSEAKVKPIESFFQKMTKLDHNPKVANNIHSLRQAEDKLTMAIKRRKLSNANVVQETLKDTRSKFFNKPSMTVVENFKEKGDSIQDFKEDTNSQSLEEPVSESQLSTQIPSSFITTNLEDDDNLSEEVSEVVSDIEEDRKNSEGKTIGNEIYNTDDDGDGDTSEDYSETAESRVPTSSTTSFPGSSQRSISGCTKVLQKFRYSSSFSGVNANRQPLFPRHVNQKSRGMVYVNQNRDDDCDDNDGKNQITQRPSLRKSLIGARSQRIVIDMKSVDERKSFNSSPILHEESKKRDIETTKSSQARPAVRSISLLSQFVYKGK",no binding,no binding
